Screen size: about 310,000 compounds; about 2,200 (0.71%) showed an effect of 50% or more. The effect is printed as a negative number. The list shows a part of the results.
Biological target: human ether-à-go-go-related gene (hERG) potassium channel (human, UniProt Q12809)
Assay: primary screen, population patch clamp on CHO cells stably expressing hERG

human ether-à-go-go-related gene (hERG) potassium channel, sequence (Q12809 whole entry, looked up): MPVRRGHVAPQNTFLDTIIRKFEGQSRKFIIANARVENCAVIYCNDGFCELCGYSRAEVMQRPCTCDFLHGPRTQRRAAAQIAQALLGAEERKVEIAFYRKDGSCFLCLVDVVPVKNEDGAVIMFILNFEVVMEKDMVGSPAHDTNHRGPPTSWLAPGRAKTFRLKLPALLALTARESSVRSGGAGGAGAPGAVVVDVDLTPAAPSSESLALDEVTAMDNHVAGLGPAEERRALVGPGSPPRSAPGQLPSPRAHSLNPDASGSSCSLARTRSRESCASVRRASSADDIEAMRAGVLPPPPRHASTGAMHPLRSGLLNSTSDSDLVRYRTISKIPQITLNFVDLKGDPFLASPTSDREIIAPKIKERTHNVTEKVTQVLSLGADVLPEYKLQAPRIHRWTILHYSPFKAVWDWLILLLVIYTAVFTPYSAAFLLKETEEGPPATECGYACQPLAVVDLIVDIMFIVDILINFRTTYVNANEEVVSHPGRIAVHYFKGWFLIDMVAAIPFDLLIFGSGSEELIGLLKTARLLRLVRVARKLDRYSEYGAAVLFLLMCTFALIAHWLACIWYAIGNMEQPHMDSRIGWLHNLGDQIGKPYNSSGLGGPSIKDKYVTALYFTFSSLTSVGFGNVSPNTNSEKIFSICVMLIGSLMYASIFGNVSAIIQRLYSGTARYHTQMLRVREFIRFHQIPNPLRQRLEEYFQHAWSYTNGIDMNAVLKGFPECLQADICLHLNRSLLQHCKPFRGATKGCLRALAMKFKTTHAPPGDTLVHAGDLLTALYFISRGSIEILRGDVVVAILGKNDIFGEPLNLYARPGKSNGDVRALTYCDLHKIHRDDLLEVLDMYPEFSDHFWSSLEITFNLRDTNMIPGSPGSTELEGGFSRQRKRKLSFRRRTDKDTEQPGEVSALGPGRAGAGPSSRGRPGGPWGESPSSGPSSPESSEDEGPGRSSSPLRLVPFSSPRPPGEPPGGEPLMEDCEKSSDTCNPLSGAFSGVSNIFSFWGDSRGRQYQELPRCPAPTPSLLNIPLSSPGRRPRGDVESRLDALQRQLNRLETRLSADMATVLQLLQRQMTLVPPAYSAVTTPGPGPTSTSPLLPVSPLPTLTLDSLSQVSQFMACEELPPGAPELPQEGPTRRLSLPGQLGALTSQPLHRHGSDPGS

SMILES | hERG current change (%, negative = inhibition) at 1uM [%]
Cc1cccc(NC(=O)c2sc(-c3ccccc3)nc2-c2ccc([N+](=O)[O-])cc2)c1 | 3.75
CC(Sc1ccc(Cl)cc1)C(=O)Nc1ccc2c(c1)OCO2 (stereo not shown) | 11.7
O=C(NCC1CCCO1)c1cccc(S(=O)(=O)N2CCOCC2)c1 (stereo not shown) | 20.6
Cc1cc(C)cc(N(C(=O)C2CCCC2)C2C=CS(=O)(=O)C2)c1 (stereo not shown) | -22.1
CC(=O)NC1C(=O)SC1(C)C (stereo not shown) | 19.9
O=c1[nH]c2ccccc2n2c(=S)[nH]nc12 | 12.4
COc1cc(OC)cc(C(=O)NCC(=O)N2CCN(c3ccc(O)cc3)CC2)c1 | 12.8
COc1ccc(C(=O)NCCC2=CCCCC2)cc1 | 3.5
Cc1cccc(NS(=O)(=O)c2cc3c(cc2C)n(C)c(=O)c(=O)n3C)c1 | 0.0515
C/C(=N/OC(=O)c1c(-c2ccccc2Cl)noc1C)c1cnccn1 | 8.98
COc1ccc(S(=O)(=O)N2CCCCC2)cc1Br | 3.21
CN1/C(=C\C(=O)c2ccco2)c2ccccc2CC1(C)C | -10.9
CCC(=O)Nc1cccc(NC(=O)c2ccc(Br)cc2)c1 | 11.8
COc1ccc(-c2csc(N3CCC(c4ccccc4)CC3)n2)cc1 | 17.6
O=C(c1cc2ccccc2o1)N1CCN=C1SCc1cccc(F)c1 | 9.3
Cc1ccc(C(=O)CSc2nnc3ccccn23)c(C)c1 | 7.33
CCc1nnc(NC(=O)CSc2nc3ccc(OC)cc3[nH]2)s1 | 3.65
CCc1ccc(OCCCC(=O)Nc2ccc(N3CCCCC3)cc2)cc1 | 9.79
COc1ccc(N(C(C)C(=O)N/N=C/c2cc(Br)c(C)o2)S(C)(=O)=O)cc1 (stereo not shown) | -0.97
CCCC/C(C)=N/NC(=O)c1cn(-c2ccccc2)nc1-c1ccccc1 | 22.3
CC1(C)C(=O)OC(c2cccn2-c2ccc([N+](=O)[O-])cc2)C(C)(C)C1=O (stereo not shown) | 9.3
CC1CCCCN1S(=O)(=O)c1ccc(N(C(=O)c2cnccn2)C(C(=O)NC2CCCC2)c2cccs2)cc1 (stereo not shown) | 9.31

SMILES | hERG current change (%, negative = inhibition) at 1uM [%]
COCC(=O)Nc1c(C(=O)Nc2ccc3c(c2)OCCO3)oc2ccccc12 | 9.11
O=C(COc1cc2oc(=O)c3c(c2cc1Cl)CCC3)NCCCN1CCCC1=O | -3.47
Cc1ccc(NC(=O)CN(C)S(=O)(=O)c2ccc3c(c2)n(C)c(=O)c(=O)n3C)cc1 | 15.9
O=C(Nc1ccccc1)C1CCCN1C(=O)Nc1ccccc1[N+](=O)[O-] (stereo not shown) | 15.2
COC(=O)c1ccccc1NC(=O)COc1ccc2c(c1)OCO2 | 7.27
CCOC(=O)[C@H]1[C@H]2COc3ccccc3[C@@H]2N2C(=O)c3c(C)cc(C)cc3NC(=O)[C@@]12C | 0.144
O=C(NN1CCOCC1)NC12CC3CC(CC(C3)C1)C2 | 15.2
C#CCNc1ccncc1S(=O)(=O)NC(=O)NC(C)C.O=[N+]([O-])O | 1.82
CS(=O)(=O)N(CC(=O)O)c1cc(C(F)(F)F)ccc1Cl | 9.34
O=C(NC1CCCCC1)c1sc(N2CCOCC2)nc1-c1ccccc1 | 4.7
CC(C)[C@H](NC(=O)C1CCN(S(=O)(=O)c2ccccc2)CC1)C(=O)NCc1ccco1 | 12
CC1=C(C(=O)O)N2C(=O)C(NC(=O)c3nn(C)cc3Cl)C2SC1 (stereo not shown) | 11.1
CC(=O)N1CCc2cc(S(=O)(=O)CCC(=O)NCCc3ccc(Cl)cc3)ccc21 | 5.03
COC(=O)c1ccc(CNC(=O)COC(=O)C2CC3C=CC2C3)cc1 (stereo not shown) | 6.97
Cc1ccc(-c2nnc(Nc3ccc4c(c3)nc(C)n4C)c3ccccc23)cc1 | 9.15
COc1ccc(NC(=O)CCCSc2ccccc2)cc1S(N)(=O)=O | 10.4
Cc1nn(CC2CC2)c(=O)n1-c1ccc(F)cc1 | 11.1
CSc1nc2c(c(=O)[nH]c(=O)n2C)n1Cc1ccccc1Cl | 11.7
Cc1[nH]c2ccccc2c1C(=O)/C=C/c1ccccc1 | 12.4
COc1ccc(C(c2nnnn2C2CCCC2)N2CCC(C)CC2)cc1.Cl (stereo not shown) | 10.2
O=C(Cc1cccs1)N1CCN(S(=O)(=O)c2cc(Cl)ccc2Cl)CC1 | -4.16
